# From article PMC2213623 (The Journal of Cell Biology, 2008)
# Target: pp32/PHAP-I (human (endogenous in HeLa), UniProt P39687 1-249)
# Test: co-IP
# Chain of UniProt P39687 (P39687 whole entry): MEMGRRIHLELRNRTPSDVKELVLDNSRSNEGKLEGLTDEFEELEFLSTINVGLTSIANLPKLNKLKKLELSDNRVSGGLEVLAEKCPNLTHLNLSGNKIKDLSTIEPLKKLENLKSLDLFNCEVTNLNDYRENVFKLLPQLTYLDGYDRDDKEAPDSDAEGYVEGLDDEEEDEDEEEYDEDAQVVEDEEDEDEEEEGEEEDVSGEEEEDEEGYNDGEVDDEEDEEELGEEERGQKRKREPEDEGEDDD
binder,measurement,value
GFP-HuRD226A (natural protein) not shown,fold change of association against GFP-wt-HuR,4 fold
